{"source": "PubChem BioAssay AID588795", "about": "(National Center for Advancing Translational Sciences (NCATS), 2011)", "note": "Where “and” joins values, the source holds several entries; their conditions need not be identical. Equal values may be shown once. Out of some 390,000 compounds screened, about 1,400 (0.36%) were called active. The inconclusive results got no clear call from the source; some entries with a clear call stand among them for comparison. Calls come from the whole dose curve; as a rule, active = well fitted inhibition curve with a large enough effect; inconclusive = small, poorly fitted or top-dose-only effect; inactive = no such curve, though single readings can be large or run the other way. A potency beside an inconclusive call is a rough fit, not a confirmed value. Potency is the fitted concentration of half-maximal effect; tags give direction and shape of the fitted curve."}
{"biological_target": "Flap endonuclease 1 (Homo sapiens) (UniProt P39748)", "sequence (P39748 whole entry, looked up)": "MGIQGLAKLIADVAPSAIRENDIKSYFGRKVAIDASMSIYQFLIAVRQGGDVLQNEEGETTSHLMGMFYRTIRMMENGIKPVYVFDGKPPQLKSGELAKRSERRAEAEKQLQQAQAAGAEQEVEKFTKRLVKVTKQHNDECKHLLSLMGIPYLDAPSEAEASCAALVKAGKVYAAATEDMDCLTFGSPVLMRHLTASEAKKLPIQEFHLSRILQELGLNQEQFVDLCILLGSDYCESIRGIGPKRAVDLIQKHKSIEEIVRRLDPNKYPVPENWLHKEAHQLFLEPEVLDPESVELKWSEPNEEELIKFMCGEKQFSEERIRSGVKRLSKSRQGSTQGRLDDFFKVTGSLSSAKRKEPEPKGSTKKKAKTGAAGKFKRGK", "assay": "qHTS Assay for the Inhibitors of Human Flap endonuclease 1 (FEN1); note: nearly all actives have a fitted effect of over 65% in size.", "conditions": "Recombinant FEN1 flap cleavage, fluorescence, 15 min; series mostly up to 114 µM", "method_in_brief": "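In this screen, 50 nM flap DNA substrate was added to 10 nM FEN1 pretreated with compound for 15 min at room temperature; cleavage was followed with reads at 0 and 15 min, and Hill fitting gave concentration–response parameters.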"}
{"smiles": "Cc1coc2c1C(=O)C(=O)c1c-2ccc2c(C)cccc12", "Potency": "inconclusive: 10 µM [inhibitor, full curve]"}
{"smiles": "CCN(Cc1ccccc1)S(=O)(=O)c1ccc(-c2coc(C)n2)cc1", "Potency": "inactive"}
{"smiles": "CCN(CC)c1ccc(/C=C/C2=C3C=CC=CC3NC=C2)cc1", "note": "(configuration not stated)", "Potency": "active: 15.8 µM"}
{"smiles": "Fc1ccc(-c2nc(Nc3cccc(C(F)(F)F)c3)nc3c2COc2ccccc2-3)cc1", "Potency": "inconclusive: 22.4 µM [inhibitor, partial curve, poor fit]"}
{"smiles": "CCOC(=O)Cc1cn(C(=O)OC(C)(C)C)c2ccccc12", "Potency": "inconclusive: 35.5 µM [inhibitor, single point]"}
{"smiles": "CCOC(=O)c1sc(=S)n(C)c1NC(=O)c1ccc(OC)cc1", "Potency": "inactive"}
{"smiles": "CCn1cc(C(=O)NCc2ccc(Cl)cc2)c(=O)c2cc(S(=O)(=O)N(C)C3CCCCC3)ccc21", "Potency": "inconclusive: 89.1 µM [inhibitor, partial curve, poor fit]"}
{"smiles": "O=C(NCCSc1ccc(Br)cc1)c1ccccc1", "Potency": "inactive"}
{"smiles": "COc1ccc(C(=O)N/N=C/c2sc(N3CCOCC3)nc2-c2ccccc2)cc1OC", "Potency": "inconclusive: 44.7 µM [inhibitor, partial curve]"}
{"smiles": "C[C@@H](NC(=O)/C(C#N)=C/c1ccc(O)c(O)c1)c1ccccc1", "Potency": "inconclusive: 8.44 µM [inhibitor, single point]"}
{"smiles": "CC(C)(C)c1nc2ccccc2c2nnc(SCC(=O)Nc3nc4ccccc4s3)n12", "Potency": "inactive"}
{"smiles": "O=C(CC1C(=O)N(c2ccc(F)cc2)C(=O)N1Cc1ccc2c(c1)OCO2)Nc1ccc(Cl)cc1", "note": "(configuration not stated)", "Potency": "inconclusive: 89.1 µM [inhibitor, single point]"}
{"smiles": "O=[N+]([O-])c1cc(Cc2ccccc2)cc(C=Nc2ccc(N3CCOCC3)cc2)c1O", "Potency": "inconclusive: 89.1 µM [inhibitor, partial curve, poor fit]"}
{"smiles": "CN1C(=O)/C(=C2\\SC(N3CCCCCC3)=NC2=O)c2ccccc21", "Potency": "inconclusive: 39.8 µM [inhibitor, partial curve, poor fit]"}
{"smiles": "CC12CCCCC1N(O)C(=O)C(=O)N2O", "note": "(configuration not stated)", "Potency": "inconclusive: 39.8 µM [inhibitor, partial curve]"}
{"smiles": "COc1ccc2[nH]c3c(NCCN(C(C)C)C(C)C)ncnc3c2c1", "Potency": "inconclusive: 56.2 µM [inhibitor, partial curve]"}
{"smiles": "CC1=NN2C(=N)/C(=C\\c3cc(C)n(-c4cccc(C)c4)c3C)C(=O)N=C2S1", "Potency": "inactive"}
{"smiles": "c1cc2c3c(cccc3c1)-c1cnccc1-2", "Potency": "inconclusive: 39.8 µM [inhibitor, partial curve]"}
{"smiles": "Cc1ccccc1-c1nnnn1C1CCS(=O)(=O)C1", "note": "(configuration not stated)", "Potency": "inactive"}
{"smiles": "Cc1cc(SCC(=O)N/N=C/c2ccc(O)c(O)c2O)c(C)cc1Br", "Potency": "active: 39.8 µM"}
{"smiles": "O=C(Nc1cccc(Br)c1)C1CCCC1", "Potency": "inactive"}
{"smiles": "O=C1NC(=O)c2cc([N+](=O)[O-])cc3cccc1c23", "Potency": "inconclusive: 12.6 µM [inhibitor, partial curve, poor fit]"}
{"smiles": "Cc1c(C)n(CCN(C)C)c2ccc(C(=O)OCCN(C)C)cc12", "Potency": "inconclusive: 79.4 µM [inhibitor, partial curve, poor fit]"}
{"smiles": "CCn1c2ccccc2c(=O)c2ccccc21", "Potency": "inconclusive: 44.7 µM [inhibitor, partial curve, poor fit]"}
{"smiles": "COc1ccc(/C=C2\\SC(=S)N(c3cccnc3)C2=O)cc1", "Potency": "inactive"}
{"smiles": "O=S(=O)(Nc1c(Br)cc(Br)c2cccnc12)C1CC1", "Potency": "inconclusive: 14.1 µM [inhibitor, partial curve, poor fit]"}
{"smiles": "CSc1nc(N(CCO)CCO)c2sc3nc(-c4ccco4)c4c(c3c2n1)CCC4", "Potency": "inconclusive: 50.1 µM [inhibitor, partial curve, poor fit]"}
{"smiles": "COc1ccc(OCc2nnc3n2N=C(c2ccccc2)C(CC(=O)O)S3)cc1", "note": "(configuration not stated)", "Potency": "inconclusive: 89.1 µM [inhibitor, single point]"}
{"smiles": "Cn1c(=O)cc2c3c(c(N4CCCCC4)ccc31)C(=O)c1ccccc1-2", "Potency": "inconclusive: 22.4 µM [inhibitor, partial curve, poor fit]"}
{"smiles": "CCOC(=O)C(O)(CC(=O)Nc1ccc(Cl)cc1Cl)C(F)(F)F", "note": "(configuration not stated)", "Potency": "inactive"}
{"smiles": "O=C(c1cccc(N2C(=O)C3C4C=CC(C4)C3C2=O)c1)N1CCCCCC1", "note": "(configuration not stated)", "Potency": "inactive"}
{"smiles": "C#CCN1C(C)=C(C(=O)OC)C(c2cccc([N+](=O)[O-])c2)C(C(=O)OCC)=C1C", "note": "(configuration not stated)", "Potency": "inconclusive: 7.52 µM [inhibitor, partial curve, poor fit]"}
{"smiles": "Cc1ccc(C(=O)COC(=O)COc2ccccc2[N+](=O)[O-])s1", "Potency": "inactive"}
{"smiles": "COc1cc(NC(=O)Nc2cccc3cccnc23)cc(OC)c1OC", "Potency": "inconclusive: 79.4 µM [inhibitor, single point]"}
{"smiles": "C=CCn1c(SCC(=O)Nc2cccc(S(N)(=O)=O)c2)nc2sc(C)c(C)c2c1=O", "Potency": "inconclusive: 56.2 µM [inhibitor, partial curve, poor fit]"}
{"smiles": "CC1=NN(c2ccc(Cl)c(C(=O)O)c2)C(=O)C1", "Potency": "inconclusive: 79.4 µM [inhibitor, partial curve, poor fit]"}
{"smiles": "C#CCOc1ccc(/C=C2/C(=O)N(c3cccc(C(=O)O)c3)N=C2C)cc1OC", "Potency": "inconclusive: 22.4 µM [inhibitor, full curve]"}
{"smiles": "O=C1Nc2cc3c(cc2C1=O)sc1ccccc13", "Potency": "inconclusive: 50.1 µM [inhibitor, partial curve]"}
{"smiles": "CCc1ccccc1N(C)C(=O)c1cn(-c2cccc(OC)c2)c(=O)c2ccccc12", "Potency": "inactive"}
{"smiles": "CCOC(=O)C1=C(CNC(C)(C)CC(C)(C)C)NC(=O)NC1c1cccc([N+](=O)[O-])c1", "note": "(configuration not stated)", "Potency": "inconclusive: 79.4 µM [inhibitor, partial curve, poor fit]"}
{"smiles": "O=c1oc2cc(O)ccc2c2oc3cc(O)ccc3c12", "Potency": "active: 44.7 µM and active: 39.8 µM"}
{"smiles": "COc1ccc2c(Sc3ccccc3)c(C(=O)NCCCN3CCCCC3)[nH]c2c1", "Potency": "inactive"}
{"smiles": "COc1ccc(OC)c(CNC(=O)Cn2nc(C)c3nn(-c4ccc(Cl)cc4)c(C)c3c2=O)c1", "Potency": "inactive"}
{"smiles": "CC1CCCc2sc3nc(NCc4ccco4)n4ncnc4c3c21", "note": "(configuration not stated)", "Potency": "inconclusive: 89.1 µM [inhibitor, partial curve, poor fit]"}
{"smiles": "CCc1c(C)[nH]n(-c2ccc(Oc3ccccc3)c(S(=O)(=O)O)c2)c1=O", "Potency": "inconclusive: 79.4 µM [inhibitor, partial curve, poor fit]"}
{"smiles": "COc1cc2nc(N3CCN(C)CC3)nc(NC3CCN(Cc4ccccc4)CC3)c2cc1OC", "Potency": "inconclusive: 56.2 µM [inhibitor, partial curve, poor fit]"}
{"smiles": "O=c1[nH]nc(-c2ccccc2)cc1-c1ccccc1", "Potency": "inactive"}
{"smiles": "O=C(COC(=O)c1ccc(S(=O)(=O)N2CCCCC2)cc1)NCc1ccco1", "Potency": "inactive"}
{"smiles": "COc1ccc(S(=O)(=O)NCC2CCCN(Cc3ccccc3Cl)C2)cc1", "note": "(configuration not stated)", "Potency": "inconclusive: 89.1 µM [inhibitor, partial curve, poor fit]"}
{"smiles": "CCc1ccc(C(=O)NC(=S)Nc2ccc3c(c2)OCCO3)cc1", "Potency": "inconclusive: 56.2 µM [inhibitor, partial curve, poor fit]"}
{"smiles": "Cc1ccccc1-n1c(C)cc(/C=N/Nc2ccc([N+](=O)[O-])cn2)c1C", "Potency": "inactive"}
{"smiles": "C=CCOc1ccc(Br)cc1/C=C1/SC(=Nc2ccc(C(=O)O)cc2)NC1=O", "Potency": "active: 25.1 µM"}
{"smiles": "CCn1c(C)nc2cc(C(=O)N/N=C/c3cccc(OC)c3O)ccc21", "Potency": "inconclusive: 50.1 µM [inhibitor, partial curve, poor fit]"}
{"smiles": "O=C(CS(=O)(=O)c1ccccc1)c1cc2ccccc2oc1=O", "Potency": "inconclusive: 56.2 µM [inhibitor, partial curve, poor fit]"}
{"smiles": "Cc1nn(-c2ccccc2)c(N)c1N=Nc1ccccc1", "Potency": "inconclusive: 89.1 µM [inhibitor, partial curve, poor fit]"}
{"smiles": "COc1ccc(-n2nc3c(N4CCCC(C(=O)NCc5ccc(C)cc5)C4)nnc(C)c3c2C)cc1", "note": "(configuration not stated)", "Potency": "inconclusive: 70.8 µM [inhibitor, partial curve]"}
{"smiles": "O=C1OC(c2cccs2)=N/C1=C/c1ccc(-c2cccc(C(=O)O)c2)o1", "Potency": "active: 39.8 µM"}
{"smiles": "COc1cc(CN2CC(=O)N(c3ccc(C)c(C)c3)C2=S)cc(OC)c1OC", "Potency": "inactive"}
{"smiles": "Cc1ccc2nc3c(c(N)c2c1)CCN3c1ccccc1", "Potency": "inconclusive: 10 µM [inhibitor, partial curve, poor fit]"}
{"smiles": "CCc1ccc(N=C2NC(=O)/C(=C/c3ccc(OCC(=O)O)c(OC)c3)S2)cc1", "Potency": "inconclusive: 50.1 µM [inhibitor, partial curve]"}
{"smiles": "COc1cc(CNc2nc3c(C)cc(C)cc3s2)ccc1O", "Potency": "inconclusive: 89.1 µM [inhibitor, partial curve, poor fit]"}
{"smiles": "O/N=C(/C[n+]1csc2ccccc21)c1ccccc1", "Potency": "inconclusive: 39.8 µM [inhibitor, partial curve, poor fit]"}
{"smiles": "Cc1nc(-c2ccccc2)sc1-c1ccc(SCC(=O)Nc2cccc(C(F)(F)F)c2)nn1", "Potency": "inactive"}
{"smiles": "Cc1cc(C)nc(/N=C(\\N)Nc2cccc(OCc3ccccc3)c2)n1", "Potency": "inconclusive: 28.2 µM [inhibitor, full curve]"}
{"smiles": "O=c1[nH]c(=S)[nH]cc1S(=O)(=O)c1cccc(Cl)c1", "Potency": "inconclusive: 89.1 µM [inhibitor, single point]"}
{"smiles": "COC(=O)C1=C(C)N(CCCC(=O)O)C(=O)NC1c1cc2c(cc1[N+](=O)[O-])OCO2", "note": "(configuration not stated)", "Potency": "inconclusive: 14.1 µM [inhibitor, full curve]"}
{"smiles": "O=C(NCCCO)c1ccc2nc(-c3ccco3)c(-c3ccco3)nc2c1", "Potency": "active: 25.1 µM and active: 12.6 µM"}
